Data on three molecules can be found in US20090291088A1, “THERAPEUTIC COMBINATIONS OF ANTI-IGF-1R ANTIBODIES AND OTHER COMPOUNDS” (Biogen Idec MA Inc., priority 2008, published 2009).

The assay concerns the target IGF-1R (Homo sapiens, UniProt P08069). The assay is described as follows: Ligand blocking assay (RIA): 125I-IGF-1 / 125I-IGF-2 binding to immobilized IGF-1R. Set-up: human IGF-1R(1-903)-Fc (denoted hIGF-1R-Fc, generated by Biogen Idec). The conditions noted are these: for blocking of IGF-1 and IGF-2 binding to IGF-1R: 100 nM-0.01 nM antibody, IGF-1R-Fc. The text has this:
Ligand blocking assay (RIA). […] Insulin (Arg-Insulin, Cat #01-207) was purchased from Upstate Cell Signaling Solutions (Lake Placid, N.Y. (now part of Millipore, Concord, Mass. (USA)). ^125I-rhIGF-1 (Cat # IM172), ^125I-rhIGF-2 (Cat# IM238) and ^125I-rhInsulin (Cat# IM166) were purchased from Amersham Biosciences (Piscataway, N.J.). AffiPure goat anti-human IgG, Fcγ fragment specific antibodies (Cat #109-005-098, Jackson ImmunoResearch, West Grove, Pa.) was used for IGF-1R-Fc capture. As detection antibody, goat anti-mouse IgG HRP (Cat #1030-05, Southern Biotech Birmingham, Ala.) was used.
Human insulin receptor α-subunit specific antibodies, Clone 83-14, (Cat #AHR0221, Biosource International, Inc., Camarillo, Calif.) and the 47-9 (Cat #E55502M, Biodesign International, Saco, M E) were used as positive controls blocking of insulin-insulin receptor binding experiments. Recombinant IGF-1R-Fc fusion protein was produced at Biogen Idec (Cambridge, Mass.).
As isotype matched mouse negative control antibodies, 2B8 (murine α-CD20.1gG,) and 2B8 mkm.G2a (murine α-CD20 MAb, IgG2a, Biogen Idec, Lot #NB3304-87, San Diego, Calif.) were used. The negative control for Fabs was R001-1B provided by Christilyn Graff (Biogen Idec, Cambridge, Mass.). PBS used in buffers was from BioWhittaker (Cat. # 17-513F, Walkersville, Md.).
Recombinant human IGF-1R (Histidine tagged version) or IGF-1R-Fc was coated onto IMMULON2 HB (high binding) Removawell strips (Dynex Technologies, Inc., cat. #6302) diluted with carbonate coating buffer pH 9.5 to a concentration of 250 ng/well. After overnight incubation at 4° C., the wells were washed three times with washing buffer (0.05% Tween 20/PBS) then blocked with blocking buffer (3% BSA/PBS) for one hour at room temperature. The blocking buffer was removed and the wells washed three more times. Antibody, Fab, or ligand preparations were diluted to desired concentration with dilution buffer (1% BSA/0.05% Tween 20/PBS) and plated at 50 μl per well in duplicate. After 45 minutes at room temperature, 100,000 cpm of either [125I] rhIGF-1 or [125I] rhIGF-2 in 50 μl dilution buffer was added per well. This was incubated at room temperature for one more hour. The wells were washed again three more times and left liquid free after the last wash. The air-dried wells were counted with the Isodata Gamma Counter.
Alternatively, Fabs were evaluated by a modified capture assay, where the IGF-1R-Fc was captured using anti-human IgG immobilized to a plate. Immobilization was carried out by overnight incubation of goat anti-human IgG, Fcγ fragment specific antibody (200 ng/well) in carbonate coating buffer. The wells were washed, blocked and 250 ng of IGF-1R-Fc was added per well.
The ligand blocking ability of the anti-IGF-1R antibody was determined by a solid phase RIA capture method as described in Example 3. […] After 1 hour of incubation at room temperature, the wells were washed and counted for bound radioactivity by a Gamma Counter. An isotype matched negative antibody control, IDEC-151 (human G4), was used. Percent (%) inhibition was calculated as =[1−(Ave.CPM with Ab)/(Ave.CPM with buffer)]×100%.

B1: M13-C06.G4.P.agly: full-length hinge-modified aglycosylated human gamma 4, kappa antibody with the binding domain of Fab M13-C06 (antibody)
heavy: EVQLLESGGGLVQPGGSLRLSCAASGFTFSIYRMQWVRQAPGKGLEWVSGISPSGGTTWYADSVKGRFTISRDNSKNTLYLQMNSLRAEDTAVYYCARWSGGSGYAFDIWGQGTMVTVSSASTKGPSVFPLAPCSRSTSESTAALGCLVKDYFPEPVTVSWNSGALTSGVHTFPAVLQSSGLYSLSSVVTVPSSSLGTKTYTCNVDHKPSNTKVDKRV[human IgG4 Fc with S228P T299A (EU numbers) not written out]
light: DIQMTQSPLSLSASVGDRVTITCQASRDIRNYLNWYQQKPGKAPKLLIYDASSLQTGVPSRFGGSGSGTDFSFTIGSLQPEDIATYYCQQFDSLPHTFGQGTKLEIKRTVAAPSVFIFPPSDEQLKSGTASVVCLLNNFYPREAKVQWKVDNALQSGNSQESVTEQDSKDSTYSLSSTLTLSKADYEKHKVYACEVTHQGLSSPVTKSFNRGEC
In the case of B1, the “blocking of IGF-1 and IGF-2 binding to IGF-1R” value is “block both IGF-1 and IGF-2 binding”.

B2: M14-G11: anti-IGF1-R antibody, competitive blocker of IGF-1 and IGF-2 (antibody, V domains shown)
VH: EVQLLESGGGLVQPGGSLRLSCAASGFTFSNYPMYWVRQAPGKGLEWVSRISSSGGRTVYADSVKGRFTISRDNSKNTLYLQMNSLRAEDTAVYYCARDRWSRSAAEYGLGGYWGQGTLVTVSS
VL: DIQMTQSPDSLAVSLGERATINCKSSQSVLYSSNNKNYLAWYQQKPGQPPKLLIYLASTRESGVPDRFSGSGSGTDFTLTISSLQAEDVAVYYCQQYYSTWTFGQGTKVEIK
modifications: Antibody variable heavy chain sequence; Antibody variable light chain sequence
For the molecule B2, under “Fabs, 125I-IGF-1”, the “IGF Blocking IGF-1” value is on record as “++ (>30%@1ug/ml)”. For the same molecule, the “IGF Blocking IGF-2” value (Fabs, 125I-IGF-2) was “++ (>30%@1ug/ml)”.

B3: M14-G11.G4.P: full-length human IgG4.P version of Fab M14-G11 (antibody, V domains shown)
VH: B2 VH
VL: B2 VL
Consider B3, for which the “blocking of IGF-1 and IGF-2 binding to IGF-1R” value was “block both IGF-1 and IGF-2 binding”.
